The inconclusive results got no clear call from the source; some entries with a clear call stand among them for comparison. Potencies of inconclusive entries are left out as doubtful fits. Active and inactive are the calls of the source. Calls follow the shape of the dose curve; as a rule, active = well fitted inhibition curve with a large enough effect; inconclusive = small, poorly fitted or top-dose-only effect; inactive = flat fitted curve, though single readings scatter.
These compounds were tested against Fructose-bisphosphate aldolase A (Oryctolagus cuniculus) (UniProt P00883) (assay: qHTS Assay for Inhibitors of Fructose-1,6-bisphosphate Aldolase from Giardia Lamblia: Rabbit FBPA Selectivity (AID 2794; also: nearly all actives have a fitted effect of over 60% in size)). Conditions: Rabbit muscle FBPA enzyme inhibition, selectivity counter-screen.
Chain of UniProt P00883 (P00883 whole entry, looked up): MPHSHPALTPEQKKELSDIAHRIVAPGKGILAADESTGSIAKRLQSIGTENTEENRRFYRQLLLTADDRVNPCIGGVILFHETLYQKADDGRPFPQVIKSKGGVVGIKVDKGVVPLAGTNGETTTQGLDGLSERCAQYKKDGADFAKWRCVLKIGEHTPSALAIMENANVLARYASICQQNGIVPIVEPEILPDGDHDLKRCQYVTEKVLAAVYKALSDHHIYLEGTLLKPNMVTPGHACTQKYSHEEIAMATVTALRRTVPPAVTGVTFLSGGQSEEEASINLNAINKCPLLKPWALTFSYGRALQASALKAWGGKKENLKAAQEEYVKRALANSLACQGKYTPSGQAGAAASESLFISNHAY
From the text: NIH Chemical Genomics Center [NCGC]
NIH Molecular Libraries Probe Production centers Network [MLPCN]
Assay Provider: Osnat Herzberg, University of Maryland
The objective of this project is to obtain compounds that inhibit Giardia lamblia growth. G. lamblia is a human pathogen which afflicts impoverished nations; it is the most common cause of outbreaks of diarrhea in the United States. During the course of our study of potential drug targets in Giardia, we have identified the Class II (Zn2+ functions in electrophilic catalysis) fructose-1,6-bisphosphate aldolase (FBPA) as an excellent candidate for drug targeting. FBPA is a key glycolytic pathway enzyme, essential for G. lamblia survival. The human FBPA belongs to the Class I aldolases, which have a different substrate binding site structure and a radically different catalytic mechanism (employing a lysine-Schiff base intermediate). Therefore, affinity-based or mechanism-based inhibitors of the Giardia FBPA are expected not to interfere with the catalytic function of the human FBPA.
A glyceraldehyde-3-phosphate dehydrogenase/triose phosphate isomerase/NAD/arsenate coupled assay was adapted to the 1536-well HTP format for use in the primary screen. This was done by coupling it to a diaphorase/resazurin/resorufin reaction that can be monitored by fluorescence (excitation, 544 nm; emission, 590 nm). Compounds identified in this screen will be further evaluated by coupling the glycerol-3-phosphate/triose phosphate isomerase/NADH assay to a phenazine methosulfate/tetranitroblue tetrazolium color reaction. False positives due to the dehydrogenases and diaphorase inhibition will be eliminated, and selectivity assay will triage inhibitors of mammalian triose phosphate isomerase and the Class I FBPA. G. lamblia FBPA inhibitors identified by the in vitro analyses will be examined for growth inhibition of Giardia trophozoites, and for cytotoxicity in human cells.
This assay addresses whether hits in the primary screen are selective for […] FBPA, by using rabbit FBPA enzyme in the protocol.
Step,Parameter,Value,Description
1,Coupling enzyme reagent,2 uL,glyceraldehyde-3-phosphate
2,Compound,23 nL,3.68 nM-57.5 uM final concentration
3,Time,10 min,RT Incubation
4,Substrate/detection Reagent,2 uL,Substrate + enzyme coupling system + AmpLite Red kit
5,Time,20 min,RT Incubation
6,Detector,525 nm/598 nm (Fluorescence),ViewLux Fluorescence Read (Read 1)
1,Medium-binding black solid-bottom Kalypsys plates. FRD or Kalypsys dispenser.
2,Compound Library (10 mM ,1:5 dilution). Pin-transferred for a [final] range of 3.68 nM-57.5 uM.
4,FRD or Kalypsys dispenser, 2 uL of reaction mixture. Bottle kept at 4C and covered in foil to protect from light.
6,ViewLux Protocol 1194; Excitation filter wheel A (525/20 Pol; BODIPY TMR FP), Emission filter wheel B (598/25 S; BODIPY TMR FP S).
Keywords: Fructose-bisphosphate aldolase, FBPA , Giardia lamblia , Giardia, HTS, Inhibitors
In the case of COc1ccc(CCn2c(NN=C(C)C)nc3c2c(=O)[nH]c(=O)n3C)cc1, the Potency is reported as inconclusive [inhibitor, partial curve].
With NNc1nc2c(-c3ccc(Cl)cc3)nnn2c2ccccc12 the Potency was “inactive”.
With CC(C)(C)c1cc(C(=S)N2CCN(CCO)CC2)cc(C(C)(C)C)c1O the Potency was inconclusive [inhibitor, single point].
In the case of CCOC(=O)C(C(=O)OCC)c1cc(Br)c2noc3c2c1C(=O)c1ccccc1-3, the Potency is reported as inconclusive [inhibitor, full curve, poor fit].
In the case of Nn1c(SCC(=O)Nc2ccc3c(c2)OCCO3)nncc1=O, the Potency is reported as “inactive”.
With CC1=NN(C(N)=S)C(=O)C1N=Nc1ccccc1C(=O)O (stereo not given) the Potency was “inactive”.
With COc1ccccc1-n1c(-c2ccco2)n[nH]c1=S the Potency was “inactive”.
COc1ccc(OC)c(C2CC(=O)N3CN(c4ccccc4)CSC3=C2C#N)c1 (stereo not given) was tested, and the Potency was inconclusive [inhibitor, partial curve].
In the case of Nn1cnnc1N/N=C/c1cccc(Cl)c1Cl, the Potency is reported as active: 11.6 µM.
With O=C(O)c1ccc(/C=C/c2ccc3cccc(O)c3n2)cc1 the Potency was inconclusive [inhibitor, partial curve].
For COC(=O)c1ccc(CC(=O)c2c(C)cc(O)cc2O)o1, the Potency was active: 39.8 µM.
In the case of CCOc1ccccc1NS(=O)(=O)c1c(C)noc1C, the Potency is reported as inconclusive [inhibitor, partial curve].
For Oc1ccc(/C=N/Nc2ccnc3cc(Cl)ccc23)c(O)c1O, the Potency was inconclusive [inhibitor, partial curve].
In the case of N#Cc1c(N)sc(=S)c2c1CCN(Cc1ccccc1)C2, the Potency is reported as inconclusive [inhibitor, partial curve].
Cc1cc(C)c2c(=O)[nH]c(SCC(=O)Nc3ccc(Br)cc3)nc2n1 was tested, and the Potency was “inactive”.
For CSS(=O)(=O)c1cccc2cccnc12, the Potency was inconclusive [inhibitor, single point].
With COC(=O)C/C=N/N=C1/NC(=O)/C(=C/C(=O)O)S1 the Potency was “inactive”.
In the case of CC(=O)N(C)c1ccc(N=Nc2c(C)[nH]n(-c3ccccc3)c2=O)cc1, the Potency is reported as “inactive”.
For COc1cc(CN2CCN(C(=O)CC(C)C)CC2)cc(OC)c1O, the Potency was inconclusive [inhibitor, partial curve].
With Cc1[nH]c2ccccc2c1/C=N/Nc1nncn1N the Potency was inconclusive [inhibitor, partial curve].
Nc1c(/C=C2/C=CC(=O)C(O)=C2)c(=O)nc2sc(CC(=O)N3CCCC3)nn12 was tested, and the Potency was inconclusive [inhibitor, partial curve].
With Cc1nnc(N/N=C/c2ccc(-c3ccccc3F)o2)n1N the Potency was inconclusive [inhibitor, partial curve].
CC(C)c1ccccc1OCC(O)CN1CCN(S(=O)(=O)c2ccc([N+](=O)[O-])cc2)CC1 (stereo not given) was tested, and the Potency was “inactive”.
With Cc1cccc(N2C(=O)CC(Sc3ncn[nH]3)C2=O)c1 (stereo not given) the Potency was “inactive”.
COC/C=C/C1=CC2=CC(=O)C(C)(OC(=O)c3cnc4ccccc4n3)C(=O)C2=CN1CCN1CCOCC1 (stereo not given) was tested, and the Potency was inconclusive [inhibitor, full curve, poor fit].
O=[N+]([O-])c1ccccc1/C=C/CN1CCN(Cc2ccc3c(c2)OCO3)CC1 was tested, and the Potency was “inactive”.
O=c1cc2c(=O)oc3cc(O)c(O)oc3c2c(O)c1O was tested, and the Potency was inconclusive [inhibitor, partial curve].
COC(=O)c1cc(OC)c(OC)cc1NC(=S)NC(=O)c1ccco1 was tested, and the Potency was “inactive”.
Cc1ccc(OCCOCCN2CCN(C)CC2)c(C(C)(C)C)c1 was tested, and the Potency was “inactive”.
For Cc1cc(C)c(S(=O)(=O)/N=C2/C=C(Sc3ncn[nH]3)C(=O)c3ccccc32)cc1C, the Potency was active: 7.08 µM.
CCn1ncc(-c2ccnc3cc(C(=O)O)nn23)c1C was tested, and the Potency was “inactive”.
In the case of Cc1ccc(NC(=O)CN2CCN(C)CC2)cc1Br, the Potency is reported as “inactive”.
For CC1CN(C(=S)NC(=O)c2ccc([N+](=O)[O-])cc2)CC(C)O1 (stereo not given), the Potency was “inactive”.
COc1ccc(CN2CCN(C(=O)c3cccc(OC)c3OC)CC2)cc1OC was tested, and the Potency was “inactive”.
O=C(Oc1ccc[nH]c1=O)c1cccc(Cl)c1 was tested, and the Potency was inconclusive [inhibitor, partial curve].
CCNc1nc(NC(C)C)nc(NS(=O)(=O)c2ccc(C)cc2)n1 was tested, and the Potency was inconclusive [inhibitor, partial curve].
In the case of COc1ccc(Cc2n[nH]c(=S)n2N)cc1OC, the Potency is reported as “inactive”.
S=C(Nc1cccc(Cl)c1)Nc1cccc2cnccc12 was tested, and the Potency was inconclusive [inhibitor, partial curve].
OCCN(CCO)c1ccc2ccccc2c1 was tested, and the Potency was inconclusive [inhibitor, partial curve].
O=C(O)CC(Cn1[nH]nnc1=S)c1ccccc1 (stereo not given) was tested, and the Potency was “inactive”.
Potency is read from the fitted curve at half-maximal effect; tags tell the direction and shape of the fitted curve.
